Laboratory results as given in PubChem BioAssay AID1460 (National Center for Advancing Translational Sciences (NCATS), 2008).
The whole screen tested about 270,000 compounds, of which about 5,800 (2.1%) were called active. The inconclusive results got no clear call from the source; some entries with a clear call stand among them for comparison. Calls follow the shape of the dose curve; as a rule, active = well fitted inhibition curve with a large enough effect; inconclusive = small, poorly fitted or top-dose-only effect; inactive = flat fitted curve, though single readings scatter. Where the call is inconclusive, the potency comes from a doubtful curve fit.

biological target: Microtubule-associated protein tau (Homo sapiens) (UniProt P10636); assay: qHTS for Inhibitors of Tau Fibril Formation, Thioflavin T Binding; settings: recombinant tau K18 P301L, heparin-induced fibrillization, ThT fluorescence; series mostly up to 57.4 µM; activity, negative = inhibition: at the top concentration; also: nearly all actives have a fitted effect of over 55% in size
UniProt P10636, sequence (P10636 whole entry, looked up): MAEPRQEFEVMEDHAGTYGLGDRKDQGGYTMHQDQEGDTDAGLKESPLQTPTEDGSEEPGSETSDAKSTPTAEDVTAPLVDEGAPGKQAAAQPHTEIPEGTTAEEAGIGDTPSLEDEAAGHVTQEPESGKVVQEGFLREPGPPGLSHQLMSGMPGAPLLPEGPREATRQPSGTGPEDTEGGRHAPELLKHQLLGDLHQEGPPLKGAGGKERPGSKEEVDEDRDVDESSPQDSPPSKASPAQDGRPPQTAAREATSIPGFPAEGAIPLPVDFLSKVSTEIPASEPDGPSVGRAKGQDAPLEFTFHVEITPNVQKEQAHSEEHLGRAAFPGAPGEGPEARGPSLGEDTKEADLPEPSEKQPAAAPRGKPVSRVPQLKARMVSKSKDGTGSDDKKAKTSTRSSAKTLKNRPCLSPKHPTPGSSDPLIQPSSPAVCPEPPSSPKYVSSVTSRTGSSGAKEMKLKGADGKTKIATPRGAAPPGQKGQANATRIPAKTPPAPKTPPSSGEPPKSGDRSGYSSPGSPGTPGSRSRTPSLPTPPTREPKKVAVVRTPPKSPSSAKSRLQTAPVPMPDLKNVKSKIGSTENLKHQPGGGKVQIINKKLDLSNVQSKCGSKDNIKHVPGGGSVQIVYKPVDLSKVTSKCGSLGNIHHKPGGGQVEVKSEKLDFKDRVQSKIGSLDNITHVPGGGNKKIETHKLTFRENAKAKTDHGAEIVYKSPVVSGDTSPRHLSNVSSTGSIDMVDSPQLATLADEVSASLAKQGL
Method in brief: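 ThT emission at 510 nm, taken 1 hr after adding 30 uM dye, quantifies aggregates formed when 20 uM heparin acts on human tau K18 P301L for 6 hr at 37 C.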
% is scaled to controls: 0 for no effect and ±100 for the full control effect; potency is read from the fitted curve at half-maximal effect; tags tell the direction and shape of the fitted curve.

Row | Compound | activity, negative = inhibition | Potency
1 | CCOc1ccc(Nc2nc3ccccc3n3nnnc23)cc1 | inactive: -15.6% | –
2 | COc1ccccc1C(=O)Oc1ccc2c(c1)O/C(=C\c1ccncc1)C2=O | – | inconclusive: 11.2 µM [inhibitor, partial curve]
3 | CN(C)c1ccnc(C(=O)O)c1 | inactive: -7.29% | –
4 | Cc1ccc2nc(-c3ccc(NC(=O)COc4c(C)ccc(C)c4C)cc3)sc2c1 | – | inconclusive: 2 µM [inhibitor, full curve]
5 | Nc1ccc(Nc2ccccc2)cc1 | – | active: 15.8 µM
6 | O=C(O)COc1ccc(/C=C/c2nc3ccc([N+](=O)[O-])cc3s2)cc1 | – | active: 2 µM
7 | CC(=O)Oc1oc(-c2ccccc2)nc1/C=N/c1ccccn1 | inactive: 8.61% | –
8 | C=CCNC(=S)Nc1ccc(Br)cc1F | inactive: -5.64% | –
9 | CCOc1ccc(CCNC(=O)Cn2nnc(-c3ccc(OC)c(OC)c3)n2)cc1OCC | inactive: -6.67% | –
10 | CN1CCN(C(CNC(=O)C(=O)Nc2ccc(F)cc2F)c2ccc3c(c2)OCO3)CC1 (stereo not drawn) | inactive: 4.05% | –
11 | CCC(=O)Nc1cccc(-c2csc(-c3ccccc3)n2)c1 | – | inconclusive: 4.47 µM [inhibitor, single point]
12 | Cc1ccc(S(=O)(=O)COCCN2CCN(S(=O)(=O)c3ccc(C)cc3)CCC2=O)cc1 | inactive: -0.34% | –
13 | CC(C)N1CCC2(CC1)C(C#N)=C(N)NC(S)=C2C#N | – | active: 20 µM
14 | O=C(CCN1C(=O)c2ccccc2C1=O)Nc1ccc(-c2cn3ccsc3n2)cc1 | – | inconclusive: 11.2 µM [inhibitor, partial curve]
15 | CCOc1ccccc1NC(=O)CSc1nccn1-c1ccc(Cl)cc1 | – | inconclusive: 12.6 µM [inhibitor, partial curve]
16 | c1ccc2c(c1)oc1c(NCc3ccc4c(c3)OCO4)ncnc12 | inactive: -14.2% | –
17 | CC(CNC(=O)C1CCN(Cc2cc3ccccc3n2Cc2ccccc2)CC1)c1ccccc1 (stereo not drawn) | inactive: -1.92% | –
18 | Cn1c(SCC(=O)Nc2ccccc2F)nnc1-c1cccnc1 | – | inconclusive: 44.7 µM [inhibitor, single point]
19 | Cc1c(Cl)cccc1NC(=O)CCn1c(=O)c2cccn2c2ccccc21 | inactive: -1.04% | –
20 | COc1ccc(N=C2C(=Nc3ccc(OC)cc3)N(c3ccc(OC)cc3)C(=S)N2C)cc1 | – | inconclusive: 10 µM [inhibitor, partial curve]
21 | C=CC(C1=CC(=O)C(OC)=CC1=O)c1ccc(OC)cc1 (stereo not drawn) | – | active: 15.8 µM
22 | O=Cc1ccc2oc3nc4n(c(=O)c3c(=O)c2c1)CCCS4 | inactive: -7.35% | –
23 | COc1cc(NC(=O)CCS(=O)(=O)c2nc(-c3cccs3)cc(C(F)(F)F)n2)cc(OC)c1OC | – | inconclusive: 11.2 µM [inhibitor, partial curve]
24 | COc1ccccc1-c1noc(CSc2nc3ccc(C)cc3[nH]2)n1 | – | inconclusive: 15.8 µM [inhibitor, partial curve, poor fit]
25 | Cc1cccc(OCCCN2C(=O)C(=O)c3cc(C)ccc32)c1 | – | inconclusive: 28.2 µM [inhibitor, partial curve]

Row | Compound | activity, negative = inhibition | Potency
26 | O=C(CCOc1ccccc1)Nc1ccc([N+](=O)[O-])cc1 | – | inconclusive: 20 µM [inhibitor, partial curve]
27 | O=C(O)c1ccccc1C(=O)NNc1ccc(Cl)cc1Cl | – | inconclusive: 28.2 µM [inhibitor, single point]
28 | CN1C(=O)C2(c3ccccc31)N(c1ccccc1)C(=O)CS2(=O)=O (stereo not drawn) | inactive: -0.717% | –
29 | CCOC(=O)N/N=C/c1ccc(OCCSc2ccc(Cl)cc2)c(OC)c1 | – | inconclusive: 5.01 µM [inhibitor, partial curve]
30 | CCc1nnc(NC(=O)c2cc(=O)c3cc(C)c(C)cc3o2)s1 | inactive: -11.8% | –
31 | COC(=O)c1ccc(NC(=O)c2c(NCc3ccc(C)o3)sc3c2CCCC3)cc1 | – | inconclusive: 14.1 µM [inhibitor, partial curve]
32 | C/C(=N\NC(=O)c1nc2ccccn2c1C)c1ccc2c(c1)OCO2 | – | inconclusive: 28.2 µM [inhibitor, single point]
33 | N#CC1=C(N)NC(=S)C(C(N)=O)C1c1ccc([N+](=O)[O-])cc1 (stereo not drawn) | – | inconclusive: 22.4 µM [inhibitor, partial curve]
34 | C(=N\Nc1nc2ccccc2[nH]1)/c1ccccn1 | – | inconclusive: 28.2 µM [inhibitor, partial curve]
35 | CCc1cccc(C)c1NC(=O)c1cccc(N(C)C)c1 | – | inconclusive: 12.6 µM [inhibitor, partial curve]
36 | COc1cc(/C=C/C(=O)c2ccc(Cl)s2)cc(OC)c1O | – | active: 14.1 µM
37 | CCN(CC)S(=O)(=O)c1ccc(C(=O)Nc2nnc(NC(=S)Nc3ccccc3)s2)cc1 | – | inconclusive: 35.5 µM [inhibitor, partial curve]
38 | Cc1ccc(N=Nc2c(C)[nH]n(-c3ccccc3)c2=O)c(C)c1 | inactive: -18% | –
39 | Cc1ccc(Nc2nc(NCCCN3CCOCC3)nc(N)c2[N+](=O)[O-])cc1C | – | inconclusive: 22.4 µM [inhibitor, partial curve]
40 | O=C(NCCO)c1ccc2c3n(nc2c1)-c1ccccc1CO3 | inactive: -4.55% | –
41 | O=C(Nc1ccc2nc(-c3ccccn3)[nH]c2c1)C1CCCCC1 | – | inconclusive: 35.5 µM [inhibitor, partial curve]
42 | COc1ccccc1CCNC(=O)Nc1cccc([N+](=O)[O-])c1 | inactive: -15.2% | –
43 | COC(=O)[C@@]1(Cc2ccc(OC)cc2)[C@H]2c3cc(C(=O)N4CCCC4)n(CCc4c[nH]c5ccc(OC)cc45)c3C[C@H]2CN1C(=O)c1ccccc1 | – | inconclusive: 22.4 µM [inhibitor, partial curve]
44 | CC12CCC(c3c(C(=O)O)nn(-c4ccccc4)c31)C2(C)C (stereo not drawn) | inactive: -6.19% | –
45 | O=C(Cn1c(=O)n(Cc2ccc3c(c2)OCO3)c(=O)c2oc3ccccc3c21)Nc1ccccc1 | – | inconclusive: 5.01 µM [activator, partial curve]
46 | CSc1ccc(CCNC(=O)C2CCN(c3nc4ccccc4nc3C(F)(F)F)CC2)cc1 | inactive: -7.31% | –
47 | NC(=O)CC(NC(=O)Cc1cccc2ccccc12)c1ccc(NCc2ccc(F)c(F)c2)c([N+](=O)[O-])c1 (stereo not drawn) | – | inconclusive: 4.47 µM [inhibitor, partial curve]
48 | COc1ccc(C2C3=C(CC(C)(C)CC3=O)N(CCN3CCOCC3)C3=C2C(=O)CC(C)(C)C3)cc1 | inactive: -6.03% | –
49 | COc1cc2[nH]c(=S)n(N(C(C)=O)C(C)=O)c(=O)c2cc1OC | inactive: -12.3% | –
50 | COc1ccc(C(=O)/C=C/Nc2c(C)n(C)n(-c3ccccc3)c2=O)c(OC)c1 | – | inconclusive: 31.6 µM [inhibitor, single point]

Row | Compound | activity, negative = inhibition | Potency
51 | O=C(CSc1nc2ccccc2s1)N1CCCCC1 | – | inconclusive: 14.1 µM [inhibitor, partial curve]
52 | CC(=O)c1ccc(N2CCN(C(=O)C3CCCN(S(=O)(=O)c4cnc[nH]4)C3)CC2)cc1 (stereo not drawn) | – | inconclusive: 17.8 µM [inhibitor, partial curve]
53 | C=CCc1c(C)nc2c(C)cccc2c1SC(=N)N | – | inconclusive: 22.4 µM [inhibitor, single point]
54 | O=C(/C=C/N1CCOCC1)c1coc2ccccc12 | – | inconclusive: 31.6 µM [inhibitor, partial curve]
55 | O=C(O)C(=O)/C(=C\c1cccc2ccccc12)c1ccc2ccccc2n1 | – | inconclusive: 25.1 µM [inhibitor, partial curve]
56 | Cc1ccc(S(=O)(=O)NC(C(=O)Oc2ccc3c(C(F)(F)F)cc(=O)oc3c2)c2ccccc2)cc1 (stereo not drawn) | inactive: 5.99% | –
57 | CC1=C(C(=O)Nc2ccccc2)C(c2ccncc2)C(C#N)=C(SCC(=O)NC(C)C)N1 (stereo not drawn) | inactive: -5.68% | –
58 | COc1ccccc1C(=O)NC(=S)Nc1ccc(N2CCCC2)cc1 | – | inconclusive: 1.78 µM [inhibitor, full curve]
59 | CCS(=O)(=O)NCc1ccc2c(c1)cc(C)n2C | – | inconclusive: 20 µM [inhibitor, single point]
60 | Cc1ccc(OCC(=O)N2CCN(c3nnc(-c4ccccc4)c4ccccc34)CC2)cc1 | – | inconclusive: 20 µM [inhibitor, partial curve]
61 | O=[N+]([O-])c1ccc(Sc2n[nH]c(-c3ccncc3)n2)nc1 | inactive: -17.3% | –
62 | Cc1ccc(-n2c(O)c(/C=N/c3ncn[nH]3)c3ccccc3c2=O)cc1 | inactive: -7.31% | –
63 | O=C1NC(c2ccc(Cl)cc2)Nc2ccccc21 (stereo not drawn) | inactive: -11.4% | –
64 | COc1ccc(OC)c(NC(=O)CSc2c3c(nc4ccccc24)CCCC3)c1 | – | inconclusive: 5.62 µM [inhibitor, partial curve]
65 | COc1cccc(-c2nc(NCc3ccco3)c3ccccc3n2)c1O | – | inconclusive: 7.08 µM [inhibitor, partial curve]
66 | Cc1cc(=O)[nH]c(SCCCOc2ccc3c(c2)CCC3)n1 | – | inconclusive: 17.8 µM [inhibitor, partial curve]
67 | Cc1ccc(NC(=O)N2CCCN(Cc3ccc(F)cc3)C2)cc1C | inactive: -6.9% | –
68 | CCCC(=Nc1ccccc1)C1=C(O)C(C(=O)OC)C(C)(C)CC1=O (stereo not drawn) | inactive: -14.8% | –
69 | COc1ccc(OC)c(/C=N/NC(=O)c2cc3c(OC)c(OC)ccc3[nH]2)c1 | – | inconclusive: 2.82 µM [inhibitor, partial curve]
70 | COc1ccc(/C=C2\CCc3ccccc3C2=O)cc1Cn1cccn1 | – | inconclusive: 22.4 µM [inhibitor, partial curve]
71 | COc1ccc(CC(=O)OCc2nnc(-c3ccccc3)o2)cc1 | inactive: -5.93% | –
72 | CN(Cc1ccccc1)c1nc(N)c([N+](=O)[O-])c(Nc2cccc(F)c2)n1 | – | inconclusive: 35.5 µM [inhibitor, partial curve, poor fit]
73 | COc1ccc(N2CCN(C(=O)Cn3cnc4nc5c(cc4c3=O)CCCC5)CC2)cc1 | – | inconclusive: 14.1 µM [inhibitor, partial curve]
